{"source": "the supplement of paper PMC10338343", "note": "± gives the standard deviation. Only a part is listed here, and it is no random draw.", "data": [{"test_system": "MIWI (PIWIL1) piRISC loaded with L1MC piRNA (30 nt)", "experiment": "pre-steady-state target cleavage rate (min^-1); higher = faster piRNA-guided slicing of the target", "details": "guide: L1MC piRNA 5'p-UAACUAAAUACUAUGCAAGCUGUAGGUCCU; auxiliary factor: 500 nM mouse GTSF1", "experimental": "(§1)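 Cleave-'n-Seq: a library of target RNAs (target site embedded in constant flanks, ACAGCATTCCGCGTTAGTGATATCCG... 5' flank; DNA-blocked outside the site) at 0.1 nM was incubated with 1 nM active mouse MILI or MIWI piRISC (synthetic 5'-monophosphorylated piRNA guide) with or without 500 nM mouse GTSF1 at 33 °C for 1 min to 16 h. Uncleaved targets were sequenced and normalised to non-target controls, and the pooled three trials were fitted to a burst-and-steady-state model to give the pre-steady-state cleavage rate (min^-1; k3 is constrained to at most 1e-4). Sequence is the target site only; target names encode pairing extent (gX:gY) and contiguous / 1-mismatch / 2-mismatch / bulge geometry. Fits with R² ≤ 0 are excluded.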", "values": [{"sequence": "UCCUCCUACGGCUUGCAUAGUAUUUAGUUA", "pre-steady-state target cleavage rate": "1.1 ± 0.048"}, {"sequence": "UCCUGGUUGUGCUUGCAUAGUAUUUACAAA", "pre-steady-state target cleavage rate": "0.0326 ± 0.011"}, {"sequence": "UCCUGGAUGUGCUUGGAUAGUAUUUUGUUA", "pre-steady-state target cleavage rate": "0.274 ± 0.047"}, {"sequence": "UCCUGCUACAGCUUGCUUAGUAUUUAGUAA", "pre-steady-state target cleavage rate": "0.279 ± 0.023"}, {"sequence": "UCCUCCUACACCUUGCAUACUAUUUAGUUA", "pre-steady-state target cleavage rate": "0.306 ± 0.044"}, {"sequence": "UCCUCCUACAGCUUGCAUAGUUUUAGUUA", "pre-steady-state target cleavage rate": "0.0154 ± 0.0079"}, {"sequence": "UCCUGGAACAGCUACCAUAGUAUUUAGAAA", "pre-steady-state target cleavage rate": "0.0039 ± 0.0039"}, {"sequence": "UCCACCUACAGCUAGCAUAGUAUUUACAAA", "pre-steady-state target cleavage rate": "0.301 ± 0.041"}, {"sequence": "UCCUGCUACAGCAUGCAUAGUAUUUAGUUA", "pre-steady-state target cleavage rate": "1.21 ± 0.086"}, {"sequence": "UCGACCAUCAGCUUGCAUAGUAUUUAGAAA", "pre-steady-state target cleavage rate": "0.464 ± 0.041"}, {"sequence": "UGGACCUACAGCUUGGAUAGUAUUUAGUUA", "pre-steady-state target cleavage rate": "1.65 ± 0.068"}, {"sequence": "UCCUGGAUGUGCUUGCUUAGUAAUUAGUUA", "pre-steady-state target cleavage rate": "0.00705 ± 0.0034"}, {"sequence": "AGGACCGACAGCUUGCAUAGUAUUUAGUUA", "pre-steady-state target cleavage rate": "1.21 ± 0.058"}, {"sequence": "UCCUGGAUGUGCUUGCAUAGUAUUGUAGUUA", "pre-steady-state target cleavage rate": "0.199 ± 0.023"}, {"sequence": "UCCUGGAACAGCUUGCAUAGUUAAUAGUAA", "pre-steady-state target cleavage rate": "0.0309 ± 0.012"}, {"sequence": "UGGACCUACAGGCUUGCAUAGUAUUUAGUUA", "pre-steady-state target cleavage rate": "1.22 ± 0.093"}, {"sequence": "UCCUGGUACAGCUUGCAUCGUAUUUAGUUA", "pre-steady-state target cleavage rate": "0.203 ± 0.024"}, {"sequence": "UGGACCUACUAGCUUGCAUAGUAUUUAGUUA", "pre-steady-state target cleavage rate": "0.63 ± 0.036"}, {"sequence": "UCCUGGAUGUCCUUGCAUAGUAUCUUAGUUA", "pre-steady-state target cleavage rate": "0.0207 ± 0.0065"}, {"sequence": "UCCUGGAUGUGCUUGCAAUGUAUUUAGUAA", "pre-steady-state target cleavage rate": "0.00378 ± 0.0032"}, {"sequence": "UCGCCUACAGCUUGCAUAGUAUUUAGUUA", "pre-steady-state target cleavage rate": "1.5 ± 0.066"}, {"sequence": "UCCUGGAUGUCGUGGCAUAGUAUUUAGUUA", "pre-steady-state target cleavage rate": "0.0123 ± 0.0034"}, {"sequence": "UGGACCAACAGGUUGCAUAGUAUUUAGUUA", "pre-steady-state target cleavage rate": "1.06 ± 0.055"}]}, {"test_system": "MIWI (PIWIL1) piRISC loaded with L1MC piRNA (30 nt)", "experiment": "pre-steady-state target cleavage rate (min^-1); MIWI and MILI are mouse PIWI proteins and EfPiwi is from a freshwater sponge; tags in brackets are library labels; higher = faster piRNA-guided slicing of the target", "details": "guide: L1MC piRNA 5'p-UAACUAAAUACUAUGCAAGCUGUAGGUCCU; auxiliary factor: none (no GTSF1)", "experimental": "as §1", "values": [{"sequence": "UCCUCCUACGGCUUGCAUAGUAUUUAGUUA", "pre-steady-state target cleavage rate": "0.0481 ± 0.0083"}, {"sequence": "UCCUGGUUGUGCUUGCAUAGUAUUUACAAA", "pre-steady-state target cleavage rate": "0.00389 ± 0.0031"}, {"sequence": "UCCUGGAUGUGCUUGGAUAGUAUUUUGUUA", "pre-steady-state target cleavage rate": "0.0168 ± 0.0048"}, {"sequence": "UCCUGCUACAGCUUGCUUAGUAUUUAGUAA", "pre-steady-state target cleavage rate": "0.0083 ± 0.002"}, {"sequence": "UCCUCCUACACCUUGCAUACUAUUUAGUUA", "pre-steady-state target cleavage rate": "0.0212 ± 0.0034"}, {"sequence": "UCCUGCUACAGCAUGCAUAGUAUUUAGUUA", "pre-steady-state target cleavage rate": "0.0207 ± 0.0053"}, {"sequence": "UCGACCAUCAGCUUGCAUAGUAUUUAGAAA", "pre-steady-state target cleavage rate": "0.00942 ± 0.0035"}, {"sequence": "UGGACCUACAGCUUGGAUAGUAUUUAGUUA", "pre-steady-state target cleavage rate": "0.0735 ± 0.013"}, {"sequence": "UCCUGGAUGUGCUUGCUUAGUAAUUAGUUA", "pre-steady-state target cleavage rate": "0.00427 ± 0.0028"}, {"sequence": "AGGACCGACAGCUUGCAUAGUAUUUAGUUA", "pre-steady-state target cleavage rate": "0.0903 ± 0.017"}, {"sequence": "UCCUGGAUGUGCUUGCAUAGUAUUGUAGUUA", "pre-steady-state target cleavage rate": "0.0189 ± 0.006"}, {"sequence": "UCCUGGAACAGCUUGCAUAGUUAAUAGUAA", "pre-steady-state target cleavage rate": "0.00349 ± 0.0027"}, {"sequence": "UGGACCUACAGGCUUGCAUAGUAUUUAGUUA", "pre-steady-state target cleavage rate": "0.0754 ± 0.014"}, {"sequence": "UCCUGGUACAGCUUGCAUCGUAUUUAGUUA", "pre-steady-state target cleavage rate": "0.0269 ± 0.0059"}, {"sequence": "UGGACCUACUAGCUUGCAUAGUAUUUAGUUA", "pre-steady-state target cleavage rate": "0.0509 ± 0.01"}, {"sequence": "UCCUGGAUGUCCUUGCAUAGUAUCUUAGUUA", "pre-steady-state target cleavage rate": "0.0034 ± 0.0025"}, {"sequence": "UCGCCUACAGCUUGCAUAGUAUUUAGUUA", "pre-steady-state target cleavage rate": "0.0743 ± 0.014"}, {"sequence": "UGGACCAACAGGUUGCAUAGUAUUUAGUUA", "pre-steady-state target cleavage rate": "0.0448 ± 0.0074"}]}]}
